Not every detail of the peptide structures is certain; ends, links or a residue may be inferred. Some compounds share one wording; it may come from a single statement. Non-standard residues stand in square brackets, D forms with d. Residues, ends and D or L forms follow the SMILES beside them. No end group written: not given here.
These compounds were tested on endopeptidase from the skin of Xenopus laevis (assay: Substrate specificity analyses: cleavage of peptides and analogues by the purified endopeptidase (acid gel, HPLC/amino acid analysis)). Settings: not given.
Type: biochemical
`CC[C@H](C)[C@H](NC(=O)CN)C(=O)NCC(=O)N[C@@H](CCCCN)C(=O)N[C@@H](Cc1ccccc1)C(=O)N[C@@H](CC(C)C)C(=O)N[C@@H](Cc1c[nH]cn1)C(=O)N[C@@H](CO)C(=O)N[C@@H](C)C(=O)N[C@H](CCCCN)C(=O)N[C@@H](CCCCN)C(=O)N[C@@H](Cc1ccccc1)C(=O)NCC(=O)N[C@@H](CCCCN)C(=O)N[C@@H](C)C(=O)N[C@@H](Cc1ccccc1)C(=O)N[C@H](C(=O)NCC(=O)N[C@@H](CCC(=O)O)C(=O)N[C@H](C(=O)N[C@@H](CCSC)C(=O)N[C@@H](CC(N)=O)C(=O)N[C@@H](CO)C(N)=O)[C@@H](C)CC)C(C)C` [dK10] (H-GIGKFLHSA[dK]KFGKAFVGEIMNS-NH2) was tested, and the “decrease in cleavage relative to native substrate” value was “approximately 50%”.
For “REVRGIGKFLHSAKKFGKAFVGEIMNS-NH2 [REVR (1-4)]”, the “cleavage efficiency relative to native magainin 2” value was “approximately 50%”.

Same assay, conditions: 50 μg peptide, one hour, room temperature; acid gel
In the case of `CC[C@H](C)[C@H](NC(=O)CN)C(=O)NCC(=O)N[C@@H](CCCCN)C(=O)N[C@@H](Cc1ccccc1)C(=O)N[C@@H](CC(C)C)C(=O)N[C@@H](Cc1c[nH]cn1)C(=O)N[C@@H](CO)C(=O)N[C@@H](C)C(=O)N[C@@H](CCCCN)C(=O)N[C@H](CCCCN)C(=O)N[C@@H](Cc1ccccc1)C(=O)NCC(=O)N[C@@H](CCCCN)C(=O)N[C@@H](C)C(=O)N[C@@H](Cc1ccccc1)C(=O)N[C@H](C(=O)NCC(=O)N[C@@H](CCC(=O)O)C(=O)N[C@H](C(=O)N[C@@H](CCSC)C(=O)N[C@@H](CC(N)=O)C(=O)N[C@@H](CO)C(N)=O)[C@@H](C)CC)C(C)C` [dK11] (H-GIGKFLHSAK[dK]FGKAFVGEIMNS-NH2), the “cleavage of the peptide by the endopeptidase (in words)” value (from here on “cleavage of the peptide”) is reported as “cleaved as efficiently as native substrate”.
For FLHSAKKFGKAFVGEIMNS-NH2 [Des-1-4], the “cleavage of the peptide” value was “do not serve as substrates”.
In the case of GIGKFLHSAAKFGKAFVGEIMKS-NH2 [G10A], the “cleavage of the peptide” value is reported as “compatible with cleavage”.
GIGKFLHSAEKFGKAFVGEIMKS-NH2 [G10E] was tested, and the “cleavage of the peptide” value was “exhibited susceptibility to hydrolysis”.
For GIGKFLHSAGAFGKAFVGEIMKS-NH2 [K11A], the “cleavage of the peptide” value was “resisted attack”.
In the case of GIGKFLHSAGPFGKAFVGEIMKS-NH2 [K11P], the “cleavage of the peptide” value is reported as “resisted attack”.
GIGKFLHSAKKFGKAFV-NH2 [Des-18-23] was tested, and the “cleavage of the peptide” value was “liberation of half-peptide products”.
For GIGKFLHSAKKFGKAFVGE-NH2 [Des-20-23], the “cleavage of the peptide” value was “liberation of half-peptide products”.
In the case of GIGKFLHSAKKFGKAFVGEIM-NH2 [Des-22-23], the “cleavage of the peptide” value is reported as “liberation of half-peptide products”.
With “GIGKFLHSAKKFKAFVGEIMNS-NH2 [omission of glycine 13]” the “cleavage of the peptide” value was “intermediate effect”.
In the case of IGKFLHSAKKFGKAFVGEIMNS-NH2 [Des-1], the “cleavage of the peptide” value is reported as “slight cleavage”.
KFLHSAKKFGKAFVGEIMNS-NH2 [Des-1-3] was tested, and the “cleavage of the peptide” value was “not hydrolyzed”.
